{
  "source": "PubChem BioAssay (NCI)",
  "note": "Several values for one entry are separate records, joined by “and”; a condition that tells them apart may be missing. Equal values may be shown once.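 Test compounds were applied to cells in 96-well plates for 48 hours at 5 doses. GI50 marks 50% less growth. At the TGI there is no net growth.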",
  "data": [
    {"tested_on": "NCI-H322M lung", "assay": "NCI-60 cell line screen, 48 h", "values": [
      {"smiles": "O=C(c1ccccc1O)c1[nH]c(Cl)c(Cl)c1-n1c(C(=O)c2ccccc2O)cc(Cl)c1Cl", "GI50": "1.71 µM and 0.941 µM", "TGI": "12.8 µM and 10.9 µM"},
      {"smiles": "COc1cc2cc(C(=O)N3CC(CCl)c4c3cc(O)c3ccccc43)[nH]c2c(OC)c1OC", "note": "(centres undefined)", "TGI": "5.86 µM"},
      {"smiles": "COc1cc(NC(C)CCCN)c2ncccc2c1Sc1ccc(Cl)cc1", "note": "(centres undefined)", "GI50": "2.93 µM"},
      {"smiles": "CC#CCCCC1(C)CCCNC1=S", "note": "(centres undefined)", "TGI": "> 10 µM"},
      {"smiles": "Cc1ccc(NC(=O)/C(=N\\NC(N)=O)c2c(O)c3ccccc3[nH]c2=O)cc1", "TGI": "> 100 µM"},
      {"smiles": "CC(=O)c1ccccc1NS(=O)(=O)c1ccc2nc(C)n(NS(=O)(=O)c3ccccc3C(C)=O)c(=O)c2c1", "TGI": "> 100 µM"},
      {"smiles": "CN(C)CCNc1nc2ccccc2c2occc12", "GI50": "61.9 µM", "TGI": "> 100 µM"},
      {"smiles": "CS/C=C\\C(=O)O[C@H]1C[C@@H]2[C@@H](O)c3occ(C)c3C[C@]2(C)[C@@H](C)C1", "TGI": "> 100 µM"},
      {"smiles": "Oc1ccccc1-c1nn2c(CCCCCCCCc3nnc4sc(-c5ccccc5O)nn34)nnc2s1", "TGI": "> 100 µM"},
      {"smiles": "O=C(Nc1cccc(-n2cc(-c3ccncc3)c(-c3ccc(O)c(Cl)c3)n2)c1)c1ccc(Cl)c(Cl)c1", "GI50": "58.4 µM", "TGI": "> 100 µM"},
      {"smiles": "COc1ccc(/C(=N/O)c2cc(OC)c(OC)c(OC)c2)c(OC)c1N", "GI50": "4.69 µM", "TGI": "> 100 µM"},
      {"smiles": "O=[N+]([O-])c1ccc(O)c(C=NCC2CCCN3CCCCC23)c1", "note": "(centres undefined)", "TGI": "> 100 µM"},
      {"smiles": "Cn1c(C(C)(C)OC(=O)Oc2ccccc2)cnc1[N+](=O)[O-]", "TGI": "> 100 µM"},
      {"smiles": "O[C@H]1[C@H](O)[C@@H](Cn2nnc(-c3ccccc3)c2-c2ccccc2)OCO[C@@H]1Cn1nnc(-c2ccccc2)c1-c1ccccc1", "TGI": "32.9 µM"},
      {"smiles": "Cc1nc2ccccc2c(=O)n1/N=C/c1ccc(N(C)C)cc1", "TGI": "> 100 µM"},
      {"smiles": "CN(C)CCOc1ccc(-c2cc(-c3ccc4c(c3)CC/C4=N\\O)c(-c3ccncc3)o2)cc1", "GI50": "4.42 µM", "TGI": "9.28 µM"},
      {"smiles": "N#C/C(=C\\c1cccc2cnccc12)N1N=NC2C=CC=CC21", "note": "(centres undefined)", "GI50": "23.2 µM", "TGI": "> 100 µM"},
      {"smiles": "NC(N)=NS(=O)(=O)c1ccc(NC(=O)c2ccc3nc4ccccc4c(N)c3c2)cc1", "TGI": "> 100 µM"},
      {"smiles": "CCN1C(=O)N(CC)C2C1NN=c1s/c(=C\\c3cccc([N+](=O)[O-])c3)c(=O)n12", "note": "(centres undefined)", "GI50": "0.678 µM", "TGI": "> 100 µM"},
      {"smiles": "O=C1CCC2(c3ccccc3)Nc3ccc(Cl)cc3N12", "note": "(centres undefined)", "TGI": "> 100 µM"},
      {"smiles": "O=C1C=C2CC[C@H]3[C@@H]4CC[C@H](Oc5c6ccccc6nc6ccccc56)[C@H]4CC[C@@H]3[C@H]2CC1", "TGI": "> 100 µM"},
      {"smiles": "COCn1c(C)c(C)c2c(=O)oc(C)nc21", "TGI": "> 100 µM"},
      {"smiles": "CC1=C/C(=C2/N=C(N(C)C)SS2)C(C)=N1", "TGI": "> 100 µM"},
      {"smiles": "O=C1C2CC=CCC2C(=O)N1n1c(Cc2ccccc2)n[nH]c1=O", "note": "(centres undefined)", "TGI": "> 100 µM"},
      {"smiles": "CN(C)Cc1cc(C(=O)/C=C/c2ccc(F)cc2)cc(CN(C)C)c1O", "TGI": "> 100 µM"},
      {"smiles": "Cc1[nH]c(=O)nc(N(CCO)/N=C/c2ccc(Cl)cc2)c1C(=O)Nc1ccc(Cl)cc1", "TGI": "> 100 µM"},
      {"smiles": "CCN(Cc1cccc(F)c1F)c1ccc(CO)c(Cl)c1", "GI50": "5.98 µM", "TGI": "34.6 µM"},
      {"smiles": "CC1(C)N=C(N)N=C(N)N1c1ccc(Cl)c(Cl)c1", "GI50": "4.62 µM", "TGI": "> 100 µM"},
      {"smiles": "N=C(N)SCc1ccc([N+](=O)[O-])cc1[N+](=O)[O-]", "GI50": "20.4 µM", "TGI": "> 100 µM"},
      {"smiles": "C[C@]12CC[C@@H]3c4ccc(O)cc4CC[C@H]3[C@@H]1CC[C@@H]2NS(=O)(=O)c1ccc2ccccc2c1", "GI50": "3.92 µM", "TGI": "23.9 µM"},
      {"smiles": "CN(C)/C=C/c1c2c(nc3ccccc13)C(=O)c1ccccc1C2=O", "TGI": "6.29 µM"},
      {"smiles": "CCCCCSC1C2C(=O)C(Br)=CC13CCNc1c(O)c4c5c(c13)=[N+]2CCC=5C=N4", "note": "(centres undefined)", "GI50": "1.68 µM", "TGI": "4.15 µM"},
      {"smiles": "COC(=O)c1ccc(C)cc1CC1Cc2c(C)cccc2C1=O", "note": "(centres undefined)", "TGI": "> 83.8 µM"},
      {"smiles": "COc1ccccc1/C=C/c1nc2ccccc2o1", "TGI": "> 10 µM"},
      {"smiles": "CC[C@H]1C=CCC[C@@]2(C[C@@H]3CC[C@@H]4[C@H](C(=O)OCCCCCCCCCCCCCCCC(=O)N(CCCNC(C)=O)C[C@H](CCNC(C)=O)OC(C)=O)[C@]5(CCC[C@@H](C)O5)NC(=[N+]34)N2)O1", "TGI": "2.03 µM"},
      {"smiles": "Cc1ccc(S(=O)(=O)SCc2ccccc2)cc1", "TGI": "> 100 µM"},
      {"smiles": "CC(C)[C@](O)(C(=O)OCC1=CCN2CC[C@@H](O)[C@@H]12)[C@H](C)O", "TGI": "> 375 µM"},
      {"smiles": "Nc1ccc(OCCCc2c(-c3ccccc3)nc(N)[nH]c2=O)cc1", "TGI": "> 100 µM"},
      {"smiles": "CCOP(=O)(CC(=O)C1=C(O)C(CCCCNC(=O)OC(C)(C)C)N(Cc2ccccc2)C1=O)OCC", "note": "(centres undefined)", "TGI": "> 100 µM"},
      {"smiles": "O=C(COc1ccc(-c2nc3cc(Cl)c(Cl)cc3[nH]2)cc1)N=Nc1c(O)[nH]c2ccccc12", "GI50": "3.25 µM", "TGI": "> 100 µM"},
      {"smiles": "CC12CC(Sc3ccccc3N1)c1ccccc1O2", "note": "(centres undefined)", "TGI": "36.6 µM"},
      {"smiles": "Cc1cc(O)cc(C)c1/C=C/c1cncc(C(=O)OC(C)(C)C)c1", "GI50": "> 25 µM", "TGI": "> 25 µM"},
      {"smiles": "COc1ccc(/C=C(/c2ccccc2)c2c(C)cc(C)c(/C(=C\\c3ccc(OC)cc3)c3ccccc3)c2N=Nc2cc(C)cc(C)c2)cc1", "TGI": "> 100 µM"},
      {"smiles": "Cc1ccc(C)c2c(N=Nc3ccccc3[N+](=O)[O-])c(O)[nH]c12", "TGI": "> 100 µM"},
      {"smiles": "O=Nc1c(O)c2ccccc2c2ccccc12", "GI50": "1.82 µM", "TGI": "3.39 µM"},
      {"smiles": "Cc1cc(NS(=O)(=O)c2ccc(NC(=O)COC(=O)c3cccc4c(=O)c5ccccc5[nH]c34)cc2)no1", "TGI": "> 100 µM"},
      {"smiles": "Cc1nc2ccccc2n1Cc1nnc2n1N=C(c1ccccc1)CS2", "TGI": "> 100 µM"},
      {"smiles": "O=C(NC(=O)c1cc2cc(Br)cc(Br)c2oc1=O)Oc1ccccc1", "TGI": "> 100 µM"},
      {"smiles": "COc1ccc(-c2cc(-c3ccccc3)nc3c2CC(=O)Nc2ccccc2-3)cc1OC", "TGI": "> 100 µM"}
    ]}
  ]
}
